Test results from paper PMC4336329 (PLoS ONE, 2015).
Out of some 310,000 compounds screened, about 2,200 (0.71%) showed an effect of 50% or more. Effects have a minus sign here. Some of the results follow.

These compounds were tested against human ether-à-go-go-related gene (hERG) potassium channel (human, UniProt Q12809) (assay: primary screen, population patch clamp on CHO cells stably expressing hERG).
Chain of human ether-à-go-go-related gene (hERG) potassium channel (Q12809 whole entry, looked up): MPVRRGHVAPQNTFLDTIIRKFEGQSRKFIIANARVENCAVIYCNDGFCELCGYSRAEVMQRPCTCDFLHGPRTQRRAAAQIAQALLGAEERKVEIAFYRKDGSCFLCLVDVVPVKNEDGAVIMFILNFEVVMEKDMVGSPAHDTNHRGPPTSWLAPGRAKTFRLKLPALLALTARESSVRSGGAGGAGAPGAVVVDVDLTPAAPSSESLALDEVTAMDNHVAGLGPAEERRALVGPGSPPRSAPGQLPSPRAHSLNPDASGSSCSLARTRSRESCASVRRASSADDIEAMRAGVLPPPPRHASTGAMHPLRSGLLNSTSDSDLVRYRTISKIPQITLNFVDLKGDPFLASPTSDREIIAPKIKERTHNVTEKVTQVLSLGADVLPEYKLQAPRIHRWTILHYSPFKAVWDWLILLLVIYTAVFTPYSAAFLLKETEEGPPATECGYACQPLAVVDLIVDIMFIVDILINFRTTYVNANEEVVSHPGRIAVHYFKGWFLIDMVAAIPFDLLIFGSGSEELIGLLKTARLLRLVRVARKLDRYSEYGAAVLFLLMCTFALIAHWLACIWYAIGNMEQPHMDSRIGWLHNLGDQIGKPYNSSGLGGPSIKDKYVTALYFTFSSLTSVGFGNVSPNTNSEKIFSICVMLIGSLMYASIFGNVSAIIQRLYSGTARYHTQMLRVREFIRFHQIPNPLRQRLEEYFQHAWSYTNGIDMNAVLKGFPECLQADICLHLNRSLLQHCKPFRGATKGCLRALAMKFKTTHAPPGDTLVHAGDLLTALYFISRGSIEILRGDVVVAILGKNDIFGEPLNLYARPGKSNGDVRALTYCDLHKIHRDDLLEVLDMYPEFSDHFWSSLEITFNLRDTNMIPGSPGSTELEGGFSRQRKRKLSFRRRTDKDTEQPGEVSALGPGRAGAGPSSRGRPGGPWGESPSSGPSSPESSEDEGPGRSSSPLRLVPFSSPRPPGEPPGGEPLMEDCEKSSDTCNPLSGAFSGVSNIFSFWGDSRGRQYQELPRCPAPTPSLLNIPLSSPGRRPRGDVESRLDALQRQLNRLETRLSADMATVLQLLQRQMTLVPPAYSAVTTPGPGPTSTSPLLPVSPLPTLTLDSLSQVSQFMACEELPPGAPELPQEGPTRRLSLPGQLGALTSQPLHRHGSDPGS

Compared with Cc1cccc(COc2ccccc2/C=N/Nc2ccc([N+](=O)[O-])cc2)c1, CN(Cc1ccc(F)cc1)C(=O)COc1ccccc1-c1ccccc1 is higher in “hERG current change (%, negative = inhibition) at 1uM” value: -2.86% for the first, 7.54% for the second.

Going from CCCCOCCCn1c(-c2ccco2)nc2nc3ccccc3nc21 to Cc1ccnc(NC(=O)CCCc2ccccc2)c1, the “hERG current change (%, negative = inhibition) at 1uM” value rises from -17% to 15.4%.

First: c1ccc2c(-c3nn4nnnc4c4ccccc34)cccc2c1
Second: Cc1cc(N2CCN(c3ccccc3)CC2)nc2ccccc12
The “hERG current change (%, negative = inhibition) at 1uM” value of the first is lower: 1.04% for the first, 10.1% for the second.

First: COc1ccc(CN2CCN(C(=O)c3ccco3)CC2)cc1OCc1ccccc1
Second: Cl.O=C(c1ccccc1F)N1CCN(Cc2ccccc2F)CC1
The “hERG current change (%, negative = inhibition) at 1uM” value of the first is lower: -20.4% for the first, 17.5% for the second.

Going from CC(C)n1c(/C=C/[C@H](O)C[C@H](O)CC(=O)[O-])c(-c2ccc(F)cc2)c2ccccc21.[Na+] to O=C(Nc1cccc(C(F)(F)F)c1)c1cc(-c2ccc(F)cc2)on1, the “hERG current change (%, negative = inhibition) at 1uM” value falls from 11.8% to 5.78%.

First: Cc1ccc(N(C)C(=O)C2CCCN2S(=O)(=O)c2cccc3nsnc23)cc1 (stereo not drawn)
Second: CCC(=O)N(Cc1cc2cc(OC)ccc2[nH]c1=O)c1ccc(C)cc1
The “hERG current change (%, negative = inhibition) at 1uM” value of the first is lower: 11.4% for the first, 11.5% for the second.

Going from COc1cccc(C(=O)Nc2nnc(Cc3ccc(OC)c(OC)c3)s2)c1 to COc1cc(-c2nnc(-c3ccc(N4CCOCC4)cc3)o2)cc(OC)c1OC, the “hERG current change (%, negative = inhibition) at 1uM” value falls from 16.2% to -18.3%.

Going from COc1cc(C2Nc3ccc4ncccc4c3C3=C2C(=O)CC(C)(C)C3)cc(OC)c1O (stereo not drawn) to CC1(C)CC(=O)C2=C(C1)OC(N)=C(C#N)C2c1cccc(OC(=O)c2ccco2)c1 (stereo not drawn), the “hERG current change (%, negative = inhibition) at 1uM” value rises from 3.56% to 6%.

First: O=C(NNC(=O)c1cc2cc(OC(F)(F)F)ccc2[nH]1)c1cccc(C(F)(F)F)c1
Second: COc1ccc(CC(=O)NNC(=O)c2ccc(SCc3cc(F)ccc3F)c([N+](=O)[O-])c2)cc1
The “hERG current change (%, negative = inhibition) at 1uM” value of the first is higher: 8.98% for the first, -12.9% for the second.

Going from Cc1ccc2c(c1)NC(=O)C(CC(=O)NCCCN1CCN(c3cc(C)ccc3C)CC1)O2 (stereo not drawn) to CCN1CCN(C(=O)C(=O)c2c(C)[nH]c3ccccc23)CC1, the “hERG current change (%, negative = inhibition) at 1uM” value rises from -29.6% to 3.16%.

Compared with C/C(N)=C(/C#N)C(=O)CSc1nnnn1-c1ccc(C)cc1C, CCOC(=O)c1nc(N)c(=O)n(-c2ccccc2)n1 is higher in “hERG current change (%, negative = inhibition) at 1uM” value: 1.94% for the first, 4.58% for the second.

Going from COc1cccc(NC(=O)NCCc2ccc(Cl)cc2)c1 to COc1ccc(C(=O)CNc2ccccc2Br)cc1, the “hERG current change (%, negative = inhibition) at 1uM” value rises from 5.86% to 14.4%.

Compared with COc1ccc2c(c1OC)C(=O)OC2C1c2c(cc3c(c2OC)OCO3)CCN1C (stereo not drawn), COc1cc(NC(=O)CSc2nc(C)cc(C)n2)cc(OC)c1OC is lower in “hERG current change (%, negative = inhibition) at 1uM” value: 7.08% for the first, 6.44% for the second.

First: O=c1[nH]c(CSc2ncccn2)nc2c1cnn2-c1ccccc1
Second: Cc1cnc(C(=O)Nc2nc(-c3ccccc3)cs2)cn1
The “hERG current change (%, negative = inhibition) at 1uM” value of the first is higher: 12.2% for the first, -3.94% for the second.

First: Cc1sc2ncnc(NCc3cccnc3)c2c1C
Second: O=C(COc1ccc(S(=O)(=O)N2CCCC2)cc1Cl)NCc1cccnc1
The “hERG current change (%, negative = inhibition) at 1uM” value of the first is lower: -22.1% for the first, -16.4% for the second.

Compared with CCOC(=O)c1c(N)sc2c1CCSC2, O=C(COC(=O)c1c(Cl)ccc(Cl)c1Cl)NC1CCS(=O)(=O)C1 (stereo not drawn) is lower in “hERG current change (%, negative = inhibition) at 1uM” value: 10.6% for the first, 9.59% for the second.

Going from O=C(NS(=O)(=O)Nc1ccccn1)c1c[nH]c2ccccc12 to CN(Cc1ccccc1)C(=O)c1nc[nH]c1C(=O)N1CCN(c2ccccc2)CC1, the “hERG current change (%, negative = inhibition) at 1uM” value falls from 14.2% to 7.7%.

First: CN(C)c1ccc(CNCCC2(O)CCOC(C)(C)C2)cc1 (stereo not drawn)
Second: CN(C)c1ccc(C(CNC(=O)c2cccs2)N(C)C)cc1 (stereo not drawn)
The “hERG current change (%, negative = inhibition) at 1uM” value of the first is lower: 0.472% for the first, 11.9% for the second.

Going from CCCn1nc(Oc2nc(NCC)nc(NC(C)C)n2)ccc1=O to CC(C)c1nnc(NC(=O)CSc2nc3ccccc3s2)s1, the “hERG current change (%, negative = inhibition) at 1uM” value falls from 7.71% to -2.37%.

Going from Cc1ccc(CNC(=O)Cn2nnc(C(=O)Nc3ccc(Br)cc3)c2N)cc1 to C/C(=N/NC(=O)c1nnn(-c2nonc2N)c1COc1ccccc1)c1ccc(O)cc1, the “hERG current change (%, negative = inhibition) at 1uM” value rises from 11% to 16.1%.

Compared with O=C(O)C1C2C=CC(C2)C1C(=O)NCc1ccccc1F (stereo not drawn), CC(=N)C1=C(O)CC(c2ccccc2)CC1=O (stereo not drawn) is higher in “hERG current change (%, negative = inhibition) at 1uM” value: 14.1% for the first, 16.6% for the second.

First: Cc1cc(NC(=O)C(C)Sc2nnc(NCc3ccco3)s2)no1 (stereo not drawn)
Second: Cc1cc(NC(=O)CN2C(=O)NC(CCc3ccccc3)C2=O)no1 (stereo not drawn)
The “hERG current change (%, negative = inhibition) at 1uM” value of the first is lower: 6.85% for the first, 8.63% for the second.

Going from O=C(CN1CCCCC1)Nc1ccccc1 to Cc1nn(-c2ccccc2)c(Cl)c1C(=O)NCC1CCCO1 (stereo not drawn), the “hERG current change (%, negative = inhibition) at 1uM” value rises from 9.84% to 13.4%.

Going from C=CCNC(=S)NCc1ccc(CNC(=S)NCC=C)cc1 to CCOC(=O)C1CCCN(CC(O)COC(c2ccccc2)c2ccccc2)C1 (stereo not drawn), the “hERG current change (%, negative = inhibition) at 1uM” value falls from 12.1% to -78.8%.

First: C/C(Cn1nnc([N+](=O)[O-])n1)=N\NC(=O)c1ccncc1
Second: COc1ccc([N+](=O)[O-])cc1N1C(=O)c2cccnc2C1=O
The “hERG current change (%, negative = inhibition) at 1uM” value of the first is lower: 9.1% for the first, 9.85% for the second.

Going from Cc1cccc(N(C(=O)c2snc(C(N)=O)c2N)C(C)C(=O)NCC2CCCO2)c1 (stereo not drawn) to COC(=O)CSC1=C(C#N)C(c2cccc(F)c2)CC(=O)N1 (stereo not drawn), the “hERG current change (%, negative = inhibition) at 1uM” value falls from 20.4% to 8.39%.

Compared with C=CCn1c(Oc2ccccc2F)nc2c1c(=O)n(C)c(=O)n2C, Cc1ccc2c(c1)c(C1=NC(=S)NC1=O)c(O)n2C is lower in “hERG current change (%, negative = inhibition) at 1uM” value: 14.3% for the first, 9.62% for the second.

Compared with CCCC(=O)NC(NC1CCS(=O)(=O)C1)C(Cl)(Cl)Cl (stereo not drawn), Cc1noc(C)c1CSCC(=O)Nc1cc(S(=O)(=O)N2CCOCC2)ccc1OCC(F)(F)F is lower in “hERG current change (%, negative = inhibition) at 1uM” value: 4.89% for the first, 0.194% for the second.

With CCOC(=O)c1[nH]c(C)c(/C(O)=C2\C(=O)C(=O)N(CCN(C)C)C2c2ccco2)c1C (stereo not drawn) the “hERG current change (%, negative = inhibition) at 1uM” value was 7%.
